Reference: paper PMC12040169 (PLOS Biology, 2025)
Some of the results follow.

These molecules were tested on T1, C. trachomatis L2/434/Bu expressing GFP (CTL2-GFP). Conditions: total inclusion area; 28.5 h, 10 µM; inhibitor.
T1 construct: L2/434/Bu GFP intracellular growth in HeLa cells
Parameters: species or system HeLa; C. trachomatis total inclusion area by high-content imaging, normalised to DMSO
Outline: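 After bulk GFP and resorufin fluorescence reads, cells were fixed, stained with Hoechst and imaged by high-content microscopy. Inclusion area and number (GFP) stood in for chlamydial growth, nuclei count (Hoechst) for host cell viability. MICs were derived as for the bulk readout.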
`NC(=O)Nn1c(CCC(=O)O)ccc1-c1cccs1` [CBK266019] was tested, and the “% of control remaining” value was 107.218. For `O=C(N/N=C/c1cccc(OC(=O)c2cccc(Br)c2)c1)c1ccncc1` [CBK262249], the “% of control remaining” value was 78.217. For `Cc1ccc([N+](=O)[O-])cc1NC1OC(C(O)CO)C(O)C1O` (centres unmarked) [CBK262031], the “% of control remaining” value was 116.356. In the case of `CCOc1cccc(-c2cncc(N3CCN(c4ccccn4)CC3)n2)c1` [CBK065985], the “% of control remaining” value is reported as 81.7824. In the case of `Cc1nc(NS(=O)(=O)c2c(C)noc2C)sc1C(=O)N1CCOCC1` [CBK050574], the “% of control remaining” value is reported as 106.883. With `Cc1ccc(C(=O)NCCN2CCOCC2)c(N2CCN(C(=O)c3ccco3)CC2)n1` [CBK076312] the “% of control remaining” value was 58.1041. For `Cc1ccccc1NC(=O)Cc1nnc(SCC(=O)c2ccccc2)n1C` [CBK269719], the “% of control remaining” value was 65.289. In the case of `Oc1cccc(OCCOc2nc3ccccc3nc2N2CCCC2)c1` [CBK115901], the “% of control remaining” value is reported as 96.7669. In the case of `CCn1cc(C(=O)N2CCc3sccc3C2)c(=O)c2ccc(C)nc21` [CBK305006], the “% of control remaining” value is reported as 26.5535. In the case of `Cc1ccc2oc(-c3cccc(NC(=O)c4ccccc4C(=O)O)c3)nc2c1` [CBK300481], the “% of control remaining” value is reported as 94.8033. In the case of `CCSc1nc(-c2ccncc2)ccc1C#N` [CBK288539], the “% of control remaining” value is reported as 65.0157. In the case of `NC(=O)c1cccc(-c2nccnc2N2CCN(CCO)CC2)c1` [CBK036726], the “% of control remaining” value is reported as 99.3528. In the case of `CCN(CC)C(=O)C1CCCN(C(=O)NC2CCc3ccccc32)C1` (centres unmarked) [CBK156156], the “% of control remaining” value is reported as 103.631. With `CN(C)CCN(C)C(=O)c1ccc(-c2cccc(Cl)c2Cl)nc1N(C)C` [CBK106082] the “% of control remaining” value was 92.7724. In the case of `COCCNc1cc(-c2ccc(Cl)cc2)ncn1` [CBK090797], the “% of control remaining” value is reported as 65.8643. `CN(C)CCNC(=O)Cc1csc(-c2ccc(Cl)cc2)n1` [CBK107299] was tested, and the “% of control remaining” value was 68.6693. With `CSc1ccc(-c2nccnc2OCCN(C(C)C)C(C)C)cc1` [CBK106805] the “% of control remaining” value was 85.2425. With `O=C([C@@H]1Cc2c([nH]c3ccccc23)C2(CCN(Cc3ccccc3)C2)N1)N1CCOCC1` (some centres unmarked) [CBK059363T] the “% of control remaining” value was 97.7105. In the case of `O=C(C[C@@H]1O[C@H](CNCc2cccc(Cl)c2)[C@@H](O)[C@H]1O)N1CCc2ccccc21` [CBK288918], the “% of control remaining” value is reported as 90.6354. In the case of `c1ccc(-c2cc(CC3(NCC4CCCCC4)COC3)no2)nc1` [CBK289644], the “% of control remaining” value is reported as 106.948. For `CCN(CC)C(=O)N1CCC(c2cccnc2)CC1` [CBK283535], the “% of control remaining” value was 96.8095. `NC(=O)c1c(NC(=O)c2cnn3cccnc23)sc2c1CCCC2` [CBK268437] was tested, and the “% of control remaining” value was 124.186. With `Cc1ccc(C(=O)NCCc2ccc(S(N)(=O)=O)cc2)c(N2CCN(C(=O)c3ccco3)CC2)n1` [CBK076345] the “% of control remaining” value was 103.77. For `CCN(CC)c1ccc(NC(=O)N(CCCN2CCOCC2)Cc2ccc(OC)c(OC)c2)cc1` [CBK159168], the “% of control remaining” value was 91.7642. `O=C(NCc1ccccc1)c1cccc(NC(=O)c2cc(-c3ccncc3)nc3ccc(Cl)cc23)c1` [CBK267769] was tested, and the “% of control remaining” value was 83.253. In the case of `NS(=O)(=O)c1ccc(S(=O)(=O)N2CCN(C/C=C/c3ccccc3)CC2)cc1` [CBK266723C], the “% of control remaining” value is reported as 113.013. In the case of `CNC(=O)c1cccc(NC(=O)C(C)N(C)Cc2cnc(C)s2)c1` (centres unmarked) [CBK305735], the “% of control remaining” value is reported as 67.3522. In the case of `Nc1ncc(-c2ccccc2CO)nc1Nc1ccc2[nH]ccc2c1` [CBK063843], the “% of control remaining” value is reported as 93.6764. For `COc1cc(/C=N/n2cnnc2)ccc1OCCOc1ccc(C(C)(C)C)cc1` [CBK263762], the “% of control remaining” value was 86.062. In the case of `c1ccc2c(OCCOCCN3CCCCC3)cccc2c1` [CBK262000], the “% of control remaining” value is reported as 91.0122. In the case of `Nc1ncnc(Nc2cc(C(F)(F)F)cc(C(F)(F)F)c2)n1` [CBK006617], the “% of control remaining” value is reported as 94.9263. For `CCN(C(=O)C(C)N(C)Cc1c(C)nn(C2CCS(=O)(=O)C2)c1C)c1cccc2ccccc12` (centres unmarked) [CBK295206], the “% of control remaining” value was 107.399. With `CCC(CC)C(=O)N1CCCC(c2cc3cccnc3[nH]2)C1` (centres unmarked) [CBK284926] the “% of control remaining” value was 83.7929. For `NC(=O)CSc1nnc(COc2cccc(Cl)c2)n1-c1ccccc1` [CBK267685], the “% of control remaining” value was 91.3434. For `CCCOc1nccnc1N1CCNCC1` [CBK001839G], the “% of control remaining” value was 48.1995. `Cc1nn(C)cc1-c1cncn1Cc1ccccc1CN(C)C` [CBK281985] was tested, and the “% of control remaining” value was 73.105. `COc1ccccc1-c1c(O)n[nH]c1CCC1CCCC1` [CBK075128] was tested, and the “% of control remaining” value was 108.978. `COc1cc(/C=C2\N=C(c3cc(Cl)ccc3OC)OC2=O)ccc1OC(=O)c1ccccc1` [CBK265069] was tested, and the “% of control remaining” value was 116.351. For `O=C(NCCCCNC(=O)c1scc(-c2ccccc2)c1C(=O)O)c1scc(-c2ccccc2)c1C(=O)O` [CBK296086], the “% of control remaining” value was 90.0895. In the case of `CCN1CCN(Cc2nc3c(c(=O)n(C)c(=O)n3C)n2CCc2ccccc2)CC1` [CBK269547], the “% of control remaining” value is reported as 96.4192. With `CC(=O)Nc1cccc(-c2cnc(N)c(N3CCN(C)CC3)n2)c1` [CBK063361] the “% of control remaining” value was 94.84. `O=C(NCC1CCCCC1)N1CCN(c2cc(C(F)(F)F)ccn2)CC1` [CBK162323] was tested, and the “% of control remaining” value was 47.5859. `COc1ccc(-c2nc(NC(=O)Cc3ccc(S(C)(=O)=O)cc3)cnc2-c2cccc(C)c2)cc1` [CBK037525] was tested, and the “% of control remaining” value was 109.807. For `CCCc1cc(CNC(=O)CN2CCCC(C)C2)on1` (centres unmarked) [CBK282045], the “% of control remaining” value was 128.203. `CON=Cc1c[nH]c2ccccc12` [CBK168628] was tested, and the “% of control remaining” value was 56.855. With `COC(=O)C1ON2CCCCC2C1(O)C(F)(F)F` (centres unmarked) [CBK007430] the “% of control remaining” value was 81.3132. With `Cc1ccc(-c2nccnc2OCc2ccccc2)cc1C` [CBK106861] the “% of control remaining” value was 84.0533. For `COc1cccc2cc([C@H]3CN(C(=O)C(C)(C)N)C[C@@H]3C(=O)N3CCC4(CC3)CN(S(C)(=O)=O)c3ccccc34)oc12` [CBK001347C], the “% of control remaining” value was 82.8741. For `CC(=O)c1cccc(NC(=O)CCn2[nH]c(=O)ccc2=O)c1` [CBK306094], the “% of control remaining” value was 38.5216. With `COc1cc(CN2CCN(Cc3cccc([N+](=O)[O-])c3)CC2)cc(OC)c1` [CBK263156] the “% of control remaining” value was 95.183.
